Test results from PubChem BioAssay (NCI).
Values joined by “and” are separate entries in the source; they are usually repeats but may differ in a detail not shown here. Identical values can stand only once.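 A five-concentration, 48-hour dose response in 96-well plates underlies each endpoint, interpolated linearly between surrounding concentrations. Here, GI50 denotes the concentration required for 50% inhibition of growth. TGI is the concentration that stops growth completely.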 Square brackets hold non-standard residues; d marks the D form. Peptide text beside a SMILES is read from it. * marks the point of attachment. Phe(4-NO2) = N[CH](Cc1ccc([N+](=O)[O-])cc1)C(=O)O; Boc = CC(C)(C)OC(=O)*; OBn = c1ccc(CO*)cc1

test system: NCI-H322M lung; assay: NCI tumour cell line growth inhibition, 48 h

Row | SMILES | TGI | GI50
1 | CN(C)C(=S)N/N=C\C=N/NC(=S)N(C)C | > 100 µM | 
2 | CN(C)c1ccc(N2C(=S)SC(=Nc3ccccc3)C2=Nc2ccccc2)cc1 | > 100 µM | 
3 | Oc1ccc(/C=C\c2nnc(/C=C\c3ccc(O)c(O)c3)s2)cc1O | > 53.5 µM | 
4 | C[C@@H]1C[C@@H](O)[C@]2(O)O[C@@H]3C[C@@]4(C=O)[C@@H](CC[C@@H]5[C@@H]4CC[C@]4(C)[C@@H](C6=CC(=O)OC6)CC[C@]54O)C[C@H]3O[C@@H]2O1 | 0.0861 µM and 0.138 µM | 
5 | Cc1cc(-c2ncc(CC(=O)Nc3ccc(-c4cnccn4)cn3)cc2C)ccn1 | > 100 µM | 79.3 µM
6 | CN1CC2=C(OC(N)=C(C#N)C2c2cccs2)/C(=C/c2cccs2)C1 (configuration not stated) | > 61.8 µM | 
7 | Cc1ccc(-[n+]2c3cc(N)c(C)cc3nc3cc(C)c(Nc4ccccc4)cc32)cc1 | 0.915 µM | 0.241 µM
8 | Cc1ncc(CN=Cc2ccc(Cl)cc2)c(N)n1 | > 100 µM | 
9 | CCN(CC)CCOc1nc2ccc(OC)cc2c2c1-c1ccc(OC)cc1C2=O | 2.04 µM | 0.533 µM
10 | CNc1ccc2nc3ccc(=[N+](C)C)cc-3sc2c1 | 22.6 µM and 14.8 µM | 5.12 µM and 2.75 µM
11 | COc1cccc2cc(C)c(C(=O)c3ccccc3)nc12 | > 100 µM | 
12 | S=C1c2ccccc2NC(=NC2CCCC2)C2CSCN12 (configuration not stated) | > 100 µM | 
13 | Cn1ccnc1S/C(=C\C=C(C#N)C#N)c1ccc(Cl)cc1 | > 38.1 µM | 11 µM
14 | COc1ccc(-c2nn3ncccc3c2-c2ccnc(Nc3ccc(Cl)c(C(F)(F)F)c3)n2)cc1 | > 25 µM | > 21.6 µM
15 | O=c1[nH]nc(Cc2ccccc2)n1/N=C/c1c[nH]c2ccccc12 | > 100 µM | 
16 | CCCCOC(=O)CNC(=O)OCCCCC#CC#CCCCCOC(=O)NCC(=O)OCCCC | > 100 µM | 
17 | COc1cccc(N2C(=O)C3c4[nH]c5ccccc5c4C4c5ccccc5CCC4C3C2=O)c1 (configuration not stated) | > 10 µM | 
18 | CCC(CCCN)Nc1cc(OC)cc2cccnc12 (configuration not stated) | > 100 µM | 
19 | O=C(Nc1ccccc1)O/N=C(/CBr)c1ccccc1 | 42.9 µM | 
20 | O=C(c1ccccc1)C(C(=O)c1ccccc1)C1(O)C(=O)c2ccccc2C1=O | > 100 µM | 
21 | COC(=O)CCC(NC(=O)OC(C)(C)C)C(=O)NC(Cc1ccc([N+](=O)[O-])cc1)C(=O)NCC(=O)OCc1ccccc1 (configuration not stated) (Boc-Glu(OMe)-[Phe(4-NO2)]-Gly-OBn; configuration not given here) | > 100 µM | 
22 | COc1ccc2cc(C(=O)/C=C/c3cc(OC)c(OC)c(OC)c3)ccc2c1 | 19.3 µM | 7.96 µM
23 | CC(=O)C1CC(C)=CCC12C(=O)Nc1ccccc12 (configuration not stated) | > 100 µM | 

Row | SMILES | TGI | GI50
24 | N/N=C(\C(=O)Nc1c(Cl)cc([N+](=O)[O-])cc1Cl)C(c1cnc2ccc([N+](=O)[O-])cc2n1)[N+](=O)[O-] (configuration not stated) | > 100 µM | 
25 | Cn1c(=O)nc2n(-c3ccc(Cl)cc3)c3ccc(Cl)cc3nc-2c1=O | 69.3 µM | 
26 | CCCCCc1cc(OC(=O)c2c(O)cc(OC)cc2CCCCC)cc(O)c1C(=O)O | 31.1 µM | 
27 | ClCc1cccc(Cn2cnc3c(Cl)ncnc32)c1 | 3.5 µM | 1.89 µM
28 | N#CC1=C2Sc3ccccc3N2[C@H](c2ccccc2)[C@H]2COC(=O)[C@@H]12 | > 100 µM | 
29 | COc1cc2c3cc1Oc1c(O)c(OC)cc4c1[C@H](Cc1ccc(cc1)Oc1cc(ccc1O)C[C@H]3N(C)CC2)N(C)CC4 | 43.4 µM | 
30 | CCOC(=O)/C(O)=C1\C(=O)N(C)C(=O)C1c1ccc(OC)c(OC)c1 (configuration not stated) | > 100 µM | 
31 | C=CCn1c2c(c3ccccc3c1=O)C(=O)c1ccccc1-2 | > 100 µM | 
32 | CC(=O)OC[C@H]1O[C@@H](O[C@H]2[C@H](OC(C)=O)C=CO[C@@H]2COC(C)=O)C(OC(C)=O)[C@H]2OC(C)(C)O[C@H]21 (some centres not stated) | > 100 µM | 
33 | O=[N+]([O-])c1cccc(-c2csc(N=Nc3c(O)[nH]c4ccccc34)n2)c1 | 92.2 µM | 
34 | Cc1ccc2[nH]cc(-c3nc(-c4c[nH]c5ncccc45)cs3)c2c1 | > 100 µM | > 100 µM
35 | C=C1CC2(OC1=O)C(=O)N(CCCCCCCN1C(=O)C3(CC(=C)C(=O)O3)c3ccccc31)c1ccccc12 (configuration not stated) | 20.3 µM | 8.21 µM
36 | O=c1c2ccccc2[nH]c(=S)n1-c1ccc(Br)cc1 | > 100 µM | 
37 | CC1(C)OP23(NC(=O)OC2(C(F)(F)F)c2ccccc2O3)OC1(C)C (configuration not stated) | > 100 µM | 
38 | COC(=O)/C=C/c1ccccc1N=[S@](C)(=O)c1ccc(C)cc1 | > 100 µM | 
39 | COc1ccc2nc3cc(Cl)ccc3c(NCCCCCC(=O)NC(COc3cnc4c(ccc5cccnc54)c3)COc3cnc4c(ccc5cccnc54)c3)c2c1 | > 100 µM | 
40 | C=C1C(=O)O[C@H]2[C@H]1CC/C(COC(=O)c1cc3cc(F)ccc3[nH]1)=C\CC[C@@]1(C)O[C@@H]21 | 9.68 µM | 2.69 µM
41 | COc1cc([C@H]2c3cc4c(cc3O[C@@]3(O)COC(=O)[C@@H]23)OCO4)cc(OC)c1OC | > 100 µM | 
42 | O=C(CCCn1cnc([N+](=O)[O-])n1)NCCn1ccnc1[N+](=O)[O-] | > 100 µM | 
43 | Oc1ccc(Cl)cc1C1=N/C(=N\CN2CCN(C/N=C3/N=C(c4cc(Cl)ccc4O)CC(c4ccccc4)N3)CC2)NC(c2ccccc2)C1 (configuration not stated) | > 100 µM | 
44 | Cc1nc2ccc(S(=O)(=O)Nc3ccc(Cl)cc3)cc2c(=O)n1NC(=O)CNc1ccc(Cl)cc1 | > 100 µM | 
45 | CC(=O)O[C@H]1CC[C@@]2(C)C(=CC[C@@H]3[C@@H]2CC[C@]2(C)C(c4cccnc4)=CC[C@@H]32)C1 | > 100 µM | 27.5 µM
